# Assay results from ChEMBL document CHEMBL1157539, “Thousands of chemical starting points for antimalarial lead identification” (Nature, 2010).
# Over roughly 13,000 compounds, “IFI” has its median near 4; the highest 2% begin near 17. The list shows a part of the results.
# Experiment: GSK_TCMDC: Inhibition Frequency Index (IFI). The number of non-kinase HTS assays where a compound showed > 50 % inhibition, expressed as a percentage of the number of such assays in which the compound was tested (-0 is zero)
# Type: functional
row,Structure (SMILES),IFI
1,CC1(C)NC(N)=NC(=N)N1OCCCOc1ccc([N+](=O)[O-])cc1,2.11%
2,Cc1cc(-c2cnc(N)c(-c3ccc(N4CCN(C)CC4)nc3)c2)cc(C)c1O,-0%
3,COc1ccc2nccc([C@@H](O)CN3CCC(NCc4cc5cc(OC(F)(F)F)ccc5[nH]4)CC3)c2c1,12.6%
4,Cc1ccc(C(=O)Nc2ccc(F)cc2)cc1-c1nc(NC2CC(C)(C)NC(C)(C)C2)nc2c1ccc(=O)n2-c1c(F)cccc1F,10.9%
5,CCOC(=O)/C(=N\OC(C(=O)OC(C)(C)C)c1ccccc1)c1csc(NC(c2ccccc2)(c2ccccc2)c2ccccc2)n1 (stereo unspecified),0.74%
6,COc1ccc2nccc([C@@H](O)CN3CCC(NCc4cc5c(F)ccc(F)c5[nH]4)CC3)c2n1,2.9%
7,O=C(NC1CCN(Cc2ccccc2O)C1)c1ccc(Cl)c(Cl)c1 (stereo unspecified),2.14%
8,Nc1nc2c(ncn2OC[C@H](CO)OCP(=O)(O)O)c(=O)[nH]1,1.41%
9,NCCCNc1nc(Nc2ccc(C(F)(F)F)cc2F)c2c(=O)[nH]ccc2n1,9.09%
10,Cc1cccc2nc(-c3ccc(-c4ccc(NC(=O)C(=O)c5cccn5C)cc4)cc3)[nH]c12,3.6%
11,CN1CCN(c2cc3c(cc2Br)CCN3C(=O)Nc2ccc(-c3cnc4ccccc4c3)cc2)CC1,14.3%
12,CN(C)C(=O)c1ccc(CN(Cc2ccc3c(c2)OCCO3)Cc2ccc3c(c2)OCO3)cc1,1.05%
13,COc1cc(C(=O)NC2CCc3ccccc32)cc(Cl)c1OC (stereo unspecified),0%
14,Cc1ccoc1C(=O)Nc1ccc(-c2cccc(-c3nc4cccc(C)c4[nH]3)c2)cc1,5.56%
15,Cc1nc(N)nc(N)c1OCCCCCCOc1ccccc1,2.86%
16,CC1(CCCCN2CCC(c3c[nH]c4cnccc34)CC2)C(=O)Nc2cccc(Cl)c21 (stereo unspecified),3.52%
17,c1ccc(CNCc2ccc(-c3cccc(-c4nc5ccccc5[nH]4)c3)cc2)cc1,9.62%
18,O=C(NCCN1CCCC1)c1cccc(-c2ccc(-c3nc4ccccc4[nH]3)cc2)c1,6.31%
19,Cc1csc(NC(=O)c2cn(-c3ccccc3)nc2-c2cccs2)n1,4.13%
20,CC(C)(C)c1ccc(CNCCOc2ccc(Nc3nnc(-c4ccc(-c5ncc[nH]5)cc4)o3)c3ccccc23)cc1,8.63%
21,COc1ccccc1-n1c(-c2ccc3ccccc3c2)csc1=NC(=O)c1ccccc1,1.35%
22,CCNC(=O)N[C@@H]1CN[C@@H](C#Cc2cc3c(Nc4ccc(OCc5cccc(F)c5)c(Cl)c4)ncnc3s2)C1,0%
23,O=C(Nc1ccc(F)cc1)NC1CCN(c2ccnc3ccccc23)C1 (stereo unspecified),-0%

row,Structure (SMILES),IFI
1,O=S(=O)(NCCN1CCCC1)c1cccc(-c2ccc(CNC3Cc4ccccc4C3)cc2)c1,11.4%
2,COc1ccc2nccc([C@@H](O)CN3CCC(NC(=O)c4ccc(Cl)c(Cl)c4)CC3)c2c1,4.41%
3,CN1CCC(NCCS(=O)(=O)c2cccc(Nc3ccc(-c4cccc(F)c4)cn3)c2)CC1,5.56%
4,COc1ccc(-c2csc3ncnc(Cl)c23)cc1OC,3.47%
5,COc1cc(OC)cc(C(=O)Nc2nc(-c3ccccn3)cs2)c1,13.8%
6,CCCCNCc1ccc(OCc2cccc(COc3ccc(CNCCCC)cc3)c2)cc1,12.9%
7,CS(=O)(=O)Nc1cccc(-c2cnc3[nH]cc(-c4ccc(C(=O)O)cc4)c3c2)c1,2.75%
8,CCCCc1nc2nc(N)nc(N)c2cc1CCC,1.61%
9,CN(C)CCOc1cc(NC(=O)c2ccc(-c3ccc(Cl)cc3Cl)cc2)ccc1-c1ccccc1,6.14%
10,O=C(Nc1ccc(N2CCN(Cc3cccc(F)c3)CC2)cc1)c1cccs1,-0%
11,O=C(COC(=O)c1cccc(S(=O)(=O)N2CCc3ccccc32)c1)NNC(=O)c1cccs1,0.97%
12,FC(F)(F)c1ccc(CSc2ccc3nnc(-c4ccccn4)n3n2)cc1,1.23%
13,FC(F)(F)c1ccc2[nH]c(-c3ccc(-c4cccc(CNCC5CCCO5)c4)s3)nc2c1 (stereo unspecified),7.92%
14,COc1ccc2[nH]ccc(=NN=Cc3ccc(Cl)cc3)c2c1,0.74%
15,O=C(Cc1c[nH]cn1)Nc1cccc(-c2ccc(-c3nc4ccccc4[nH]3)cc2)c1,3.77%
16,CC(C)(c1ccccc1)c1ccc(O)c(CN2CCOCC2)c1,4.03%
17,CCn1cc(-c2cc(C(=O)Nc3ccc(OC)cc3C)c3ccccc3n2)c(C)n1,0%
18,C[C@@H](C(=O)N1CCOCC1)N1CC[C@H](NS(=O)(=O)c2ccc3ccnc(N)c3c2)C1=O,0%
19,CN=C(NC)c1cccc(NC(=O)C=Cc2ccc(C=CC(=O)Nc3cccc(C(=NC)NC)c3)cc2)c1,1.42%
20,CCN(CC)CCNc1ccnc2c3ccccc3n(C)c12,1.47%
21,O=C(NCC1CC1)C1CCN(C(c2ccccc2)c2ccc(Cl)c(Cl)c2)CC1 (stereo unspecified),3.45%
22,CN1CCCc2cc(NC(=O)C=Cc3ccc(-c4ccc(F)cc4F)o3)ccc2C1,10.2%
23,Cc1cc2nc(N/C(N)=N/C(=O)NC3CCCCC3)nc(C)c2cc1C,9.38%
